Target: filamentous actin (F-actin), rabbit skeletal muscle (rabbit, UniProt P68135)
Assay: negative-stain electron microscopy with helical 3D reconstruction; Eps8(535–821) on F-actin, 2% uranyl acetate, iterative helical real space refinement, difference map against undecorated F-actin
Details: both partners purified

stoichiometry N: 1
B1: Eps8([…]) (domain or fragment)
chain: not shown
